Reference: PubChem BioAssay AID686970 (National Center for Advancing Translational Sciences (NCATS), 2013)
In all, about 360,000 compounds went through this assay and about 6,000 (1.7%) were called active. Inconclusive means that the source gave no clear call. Such entries were picked first, then a sample of the others. The call rests on the fitted dose curve; in most records, active means well fitted cell-killing curve with a large enough effect; inconclusive means small, poorly fitted or top-dose-only effect, or effect the other way; inactive means flat fitted curve, though single readings scatter. No potency is given beside an inconclusive call; the fits are too rough.

assay: qHTS for induction of synthetic lethality in tumor cells producing 2HG: qHTS for the HT-1080-NT fibrosarcoma cell line; details: HT-1080-NT fibrosarcoma viability, CellTiter-Glo ATP luminescence, 48 h; activity, negative = less viability: at 46.1 µM (top of the series) unless noted;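 further: NT is the 2HG producing partner of a matched IDH1 knockdown line; nearly all actives have a fitted effect of over 55% in size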;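 on activity, negative = less viability: 0% = DMSO-treated cells and -100% = media-only wells without cells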
Procedure, shortened: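 750 cells/well, RPMI + 5% FBS; 2 h settle, compound pin-transfer, 48 h at 37 degrees C. CellTiter-Glo 10 min RT, luminescence. Normalized to DMSO and media-only wells.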
Potency means the concentration at half of the fitted maximal effect; tags describe the fitted curve by direction and shape.

Row | Compound | Potency | activity, negative = less viability
1 | COc1ccccc1N1C(=O)CC(Sc2nc(C)cc(C)n2)C1=O (stereo unspecified) | inconclusive [cytotoxic, single point] | –
2 | C/C(=N\NC(=O)c1nn(C)cc1Br)c1ccc(NC(=O)c2ccncc2)cc1 | inconclusive [rising, single point] | –
3 | O=C(Nc1cc(C(F)(F)F)cc(C(F)(F)F)c1)Nc1cnn(-c2ccc([N+](=O)[O-])cc2)c1C(F)(F)F | inconclusive [rising, single point] | –
4 | Clc1cccc(Cc2c(-c3cccc(Cl)c3)nc3ccc(Cl)cn23)c1 | inconclusive [cytotoxic, single point] | –
5 | Cc1cc([N+](=O)[O-])nn1CC(=O)N/N=C/c1ccc(O)cc1O | inconclusive [cytotoxic, partial curve] | –
6 | c1ccc(COc2ccc(OCCCCN3CCCCC3)cc2)cc1 | inconclusive [cytotoxic, single point] | –
7 | CCOC(=O)c1c(C)sc2c1N(C(=O)CCl)c1cc(Cl)ccc1S2 | active: 23.1 µM | –
8 | c1cc2c3c(cccc3c1)NC1(CCC3(CC1)Nc1cccc4cccc(c14)N3)N2 | active: 20.6 µM | –
9 | Nc1nc(-c2ccccc2)cc(C(F)(F)F)n1 | – | inactive: 9.12%
10 | Cc1cccc2nc(-c3ccccc3)nc(N3CCC(O)(c4ccc(Cl)cc4)CC3)c12 | inconclusive [cytotoxic, full curve, poor fit] | –
11 | C=CCNC(=S)N/N=C/c1ccc(-c2ccc(OC)cc2)o1 | inconclusive [cytotoxic, single point] | –
12 | COc1cc(NC(=O)c2c(Cl)cnn2C)c(OC)cc1Cl | inconclusive [rising, partial curve, poor fit] | –
13 | CCN(CC)S(=O)(=O)c1ccc(NC(=O)c2cccnc2Cl)c(NC(=O)c2cccnc2Cl)c1 | inconclusive [cytotoxic, single point] | –
14 | CC(C)(C)NC(=O)C(c1ccnc2ccccc12)n1c(=O)c(-c2cc3ccccc3[nH]2)nc2ccccc21 (stereo unspecified) | active: 20.6 µM | –
15 | COC(=O)Cn1c(CN2CCN(c3ccccc3F)CC2)nc2c1c(=O)n(C)c(=O)n2C | – | inactive: 1.74%
16 | CCCC(=O)N1CCC1(C)C(=O)Nc1ccc(OC)c(OC)c1 (stereo unspecified) | – | inconclusive: 18%
17 | Cc1onc(-c2ccccc2Cl)c1C(=O)NC(=S)Nc1ccc(C(C)(C)C)cc1 | inconclusive [cytotoxic, single point] | –
18 | N=C1C(c2nc(-c3ccc(F)cc3)cs2)=C(O)CN1CCCN1CCOCC1 | inconclusive [cytotoxic, partial curve] | –
19 | O=C1CCC/C(=N/NC(=O)c2ccc(CN3c4cccc5cccc(c45)S3(=O)=O)cc2)C1 | – | inactive: 8.88%
20 | Cc1ccc(C(=O)NC(C)C2CC3CCC2C3)cc1 (stereo unspecified) | – | inactive: 2.75%
21 | CC(C)c1ccc(/C=C/C(=O)n2nnc3ccccc32)cc1 | inconclusive [cytotoxic, single point] | –
22 | Cc1ccccc1CS(=O)(=O)c1ccc(C(=O)N2CCC(C)CC2)cc1[N+](=O)[O-] | – | inactive: 13.5%
23 | Cc1cc2c3ccccc3[nH]c(=O)n2n1 | – | inactive: 15.6%
24 | O=C(c1ccc(N2C(=O)c3ccccc3C2=O)cc1)N1CCN(S(=O)(=O)c2ccccc2F)CC1 | – | inactive: -1.56%

Row | Compound | Potency | activity, negative = less viability
25 | CCOc1ccc(Cl)cc1-c1cc(C(=O)NCc2ccccc2)[nH]n1 | inconclusive [cytotoxic, single point] | –
26 | CC(=O)c1ccc(NC(=O)c2cc(C)no2)cc1 | inconclusive [rising, single point] | –
27 | CC(C)Oc1cc(F)ccc1-c1cc(C(=O)Nc2cccc(C(F)(F)F)c2)[nH]n1 | active: 16.4 µM | –
28 | CCN(CC)S(=O)(=O)c1ccc(N2CCN(C)CC2)c(NC(=O)Nc2ccccc2F)c1 | inconclusive [cytotoxic, single point] | –
29 | COc1cc(CCNC2=CC(=O)c3ncccc3C2=O)ccc1O | inconclusive [cytotoxic, partial curve] | –
30 | COc1ccc(NC(=O)C(=O)c2cn(CC(=O)N3CCCC3)c3ccccc23)cc1 | inconclusive [cytotoxic, full curve] | –
31 | CCc1ccc(-c2csc(NC(=O)C3=NN(c4ccccc4)C(=O)CC3)n2)cc1 | inconclusive [cytotoxic, single point] | –
32 | CCCOC(=O)c1ccc(Oc2cn[nH]c2-c2ccc(OC)cc2O)cc1 | active: 20.6 µM | –
33 | COc1ccc2sc(N(CCCN(C)C)C(=O)c3ccc(S(=O)(=O)N4CCCc5ccccc54)cc3)nc2c1 | – | inactive: -10.2%
34 | CC(=O)Nc1ccc(NC(=O)COC(=O)c2c(C)nn(-c3ccccc3)c2C)cc1 | – | inactive: -3.31%
35 | O=C(NCc1ccc(Cl)cc1Cl)Nc1ccccc1 | inconclusive [cytotoxic, single point] | –
36 | O=C1CC(c2cccc(Br)c2)c2cc3c(cc2N1)CCC3 (stereo unspecified) | active: 4.47 µM | –
37 | COC(=O)C1CCN(CCCOc2ccc(CN3CCN(c4ccc([N+](=O)[O-])cc4)CC3)cc2)CC1 | inconclusive [cytotoxic, partial curve] | –
38 | O=C(NCCSc1ccccc1)c1ccc(CN2CCOCC2)cc1 | – | inactive: -0.78%
39 | Cc1cc(N2C(=O)C(O)=C(C(=O)c3cccs3)C2c2cccc(O)c2)no1 (stereo unspecified) | – | inconclusive: 30.2%
40 | COc1ccccc1Nc1nc2ccccc2[nH]1 | inconclusive [cytotoxic, partial curve] | –
41 | COc1ccc(CNC(=O)c2cc3c(C)nc4ccccc4c3o2)c(OC)c1 | – | inactive: -6.14%
42 | COc1ccc(-c2csc(C(C)(O)c3cccnc3)n2)cc1 (stereo unspecified) | inconclusive [cytotoxic, single point] | –
43 | CCCCOc1ccc(Br)cc1/C(C)=N/NC1=NCCN1 | active: 8.2 µM | –
44 | O=C(Nc1ccc(Cl)cc1)c1cc2c(cc1O)[nH]c1ccccc12 | active: 14.6 µM | –
45 | Cc1ccccc1C(=O)NC(=S)Nc1ccc(Cc2ccncc2)cc1 | – | inactive: 23.4%
46 | Cn1cc([C@@H]2C[C@H]3CN(Cc4cccc(Cl)c4)C(=O)[C@]34CCCN24)c(-c2ccccc2)n1 | – | inactive: -18.9%
47 | CCN1CCC(O)(/C=C/c2ccc(C)cc2)C(C(=O)/C=C/c2ccc(C)cc2)C1 (stereo unspecified) | inconclusive [cytotoxic, single point] | –
48 | O=S(=O)(Nc1cc(Sc2cccc3cccnc23)c(O)c2ccccc12)c1ccc(F)cc1 | active: 23.1 µM | –

Row | Compound | Potency | activity, negative = less viability
49 | COc1ccccc1CNCc1cccc(Oc2ccccc2)c1 | – | inactive: -26.7%
50 | CCN(C(=O)CSc1cc(C)c2ccc(OC)cc2n1)C1CCS(=O)(=O)C1 (stereo unspecified) | – | inactive: -12.1%
51 | CC(=O)Nc1cccc(/C(C)=N/NC(=S)NC(C)C)c1 | inconclusive [cytotoxic, single point] | –
52 | O=C(NCc1ccccn1)C1CCCN(S(=O)(=O)c2cc(Cl)ccc2Cl)C1 (stereo unspecified) | active: 5.8 µM | –
53 | COc1ccc(-c2nc(N)nc(C)c2Oc2ccccc2Br)c(O)c1 | inconclusive [cytotoxic, single point] | –
54 | COc1ccccc1NC(=O)CC1C(=O)NCCN1C(=O)Nc1ccc(Cl)c(Cl)c1 (stereo unspecified) | active: 16.4 µM | –
55 | Cc1cccc(N2CCN(C(=O)c3c(C)nn(Cc4ccccc4Cl)c3C)CC2)c1C | inconclusive [cytotoxic, single point] | –
56 | CCCn1nnnc1NCc1ccccc1Cl | – | inactive: -1.18%
57 | Cc1ccc(-n2cnc3scc(-c4cccs4)c3c2=O)cc1 | inconclusive [cytotoxic, single point] | –
58 | COc1ccccc1NC(=O)CNC(=O)Cn1cnc2sc(C)c(C)c2c1=O | inconclusive [cytotoxic, single point] | –
59 | C[C@H]1CN([C@@H](C)CO)C(=O)CCCn2cc(nn2)CO[C@@H]1CN(C)C(=O)Nc1ccc2c(c1)OCCO2 | – | inactive: -0.237%
60 | O=C(/C=C/NNC(=O)c1ccccc1)c1ccc([N+](=O)[O-])cc1 | inconclusive [cytotoxic, single point] | –
61 | CS(=O)(=O)Nc1cccc(-c2cc(NC=O)c3ncc(-c4ccc(F)c(Cl)c4)n3c2)c1 | inconclusive [cytotoxic, single point] | –
62 | O=C(Nc1cccc([N+](=O)[O-])c1)c1cc(S(=O)(=O)N2CCOCC2)cs1 | – | inactive: 7.62%
63 | COc1cccc(NC(=O)CN(C)C(=O)c2cccnc2Nc2cccc(C(F)(F)F)c2)c1 | inconclusive [cytotoxic, single point] | –
64 | O=c1c2ccccc2c(-c2ccc(O)cc2)nn1-c1cccc(C(F)(F)F)c1 | inconclusive [cytotoxic, single point] | –
65 | COC(=O)[C@]12CCCCC=C1N(Cc1ccccc1)C(=O)[C@H](CC(=O)NCc1cccc3ccccc13)C2 | inconclusive [cytotoxic, single point] | –
66 | COc1ccc(CC(N)c2csc(NC(=O)NCc3ccccc3)n2)cc1 (stereo unspecified) | – | inconclusive: -80.9%
67 | CCOC(=O)c1ccccc1NC(=O)c1ccccc1SC | inconclusive [cytotoxic, single point] | –
68 | Cc1ccccc1-c1csc(C(O)c2ccccc2)n1 (stereo unspecified) | – | inactive: -13.2%
69 | COc1ccc(C(C)(O)c2nc(-c3ccc4ccccc4c3)cs2)cc1 (stereo unspecified) | inconclusive [cytotoxic, single point] | –
70 | CC(=O)c1sc2c(c1OC(=O)c1ccc(Cl)cc1Cl)c(=O)n(-c1ccccc1)c(=S)n2-c1ccccc1 | active: 1.46 µM | –
71 | CCOc1ccc2nc(N(CCCN(C)C)C(=O)c3ccc(S(=O)(=O)N4CCc5ccccc5C4)cc3)sc2c1 | inconclusive [cytotoxic, single point] | –
